The values below come from PMC4336329 (PLoS ONE, 2015).

Screen size: about 310,000 compounds; about 14,000 (4.5%) showed an effect of 50% or more. The effect is printed as a negative number. Some of the results follow.
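Further: peak tail current of the secondary pulse compared with the same well before compound.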

Sequence of human ether-à-go-go-related gene (hERG) potassium channel (Q12809 whole entry, looked up): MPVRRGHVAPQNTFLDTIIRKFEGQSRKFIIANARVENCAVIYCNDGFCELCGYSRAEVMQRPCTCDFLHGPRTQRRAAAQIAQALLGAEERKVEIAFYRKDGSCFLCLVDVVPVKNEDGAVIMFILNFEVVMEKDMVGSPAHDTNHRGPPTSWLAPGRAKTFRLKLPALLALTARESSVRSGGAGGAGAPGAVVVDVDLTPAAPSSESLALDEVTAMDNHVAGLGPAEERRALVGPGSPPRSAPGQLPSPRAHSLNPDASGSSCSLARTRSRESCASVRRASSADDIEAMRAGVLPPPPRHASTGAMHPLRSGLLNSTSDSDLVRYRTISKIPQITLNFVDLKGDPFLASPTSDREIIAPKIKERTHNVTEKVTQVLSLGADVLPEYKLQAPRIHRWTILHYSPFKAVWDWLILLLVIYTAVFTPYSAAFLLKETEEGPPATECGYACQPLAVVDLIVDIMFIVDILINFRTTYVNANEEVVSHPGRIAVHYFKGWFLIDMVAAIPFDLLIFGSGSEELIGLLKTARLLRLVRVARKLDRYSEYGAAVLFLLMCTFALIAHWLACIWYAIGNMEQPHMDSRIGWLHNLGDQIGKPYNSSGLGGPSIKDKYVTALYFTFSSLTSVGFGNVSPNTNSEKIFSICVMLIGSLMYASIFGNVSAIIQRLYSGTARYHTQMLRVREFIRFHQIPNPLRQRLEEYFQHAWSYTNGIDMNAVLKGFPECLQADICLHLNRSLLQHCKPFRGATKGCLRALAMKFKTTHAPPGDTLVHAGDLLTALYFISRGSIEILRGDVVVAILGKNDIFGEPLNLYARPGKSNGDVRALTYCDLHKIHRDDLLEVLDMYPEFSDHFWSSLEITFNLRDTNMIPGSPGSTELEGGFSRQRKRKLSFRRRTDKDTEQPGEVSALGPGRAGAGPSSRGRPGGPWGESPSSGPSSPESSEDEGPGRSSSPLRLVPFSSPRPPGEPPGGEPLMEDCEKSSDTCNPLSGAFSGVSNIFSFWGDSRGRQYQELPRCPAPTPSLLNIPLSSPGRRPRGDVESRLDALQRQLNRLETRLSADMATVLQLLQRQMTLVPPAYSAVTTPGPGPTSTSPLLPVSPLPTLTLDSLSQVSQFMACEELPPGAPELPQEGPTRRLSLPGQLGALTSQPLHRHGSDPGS

This experiment concerns the target human ether-à-go-go-related gene (hERG) potassium channel (human, UniProt Q12809). The experiment in a line: primary screen, population patch clamp on CHO cells stably expressing hERG.
With `O=[N+]([O-])c1cccc(N2Cc3ccccc3C2)c1`, the “hERG current change (%, negative = inhibition) at 10uM” value is recorded as -11.6%. Consider `Cl.O=C(NNC(=O)c1cccc(C(F)(F)F)c1)c1ccncc1`, for which the “hERG current change (%, negative = inhibition) at 10uM” value is 14%. Under `CCCC(C(=O)NC1CCCC1)N(Cc1cccs1)C(=O)c1snc(C(N)=O)c1N` (stereo not shown) stands -35.6%; under `CCOC(=O)N1CCN(c2nc3ccccc3nc2C(C#N)C(=O)NCCc2ccccc2)CC1` (stereo not shown), 7.98%; under `CN(C)C=O.N#Cc1ccc(Cl)cc1NC(=O)CSc1nc2nc(-c3cccs3)cc(C(F)(F)F)c2c(=O)[nH]1`, 22.9%. Under `O=C(c1ccc(N2CCN(C(=O)c3cccc(F)c3)CC2)cc1)c1cccc(F)c1` stands -12.5%; under `O=C(CCC1CCCNC1)c1ccccc1` (stereo not shown), 15%. Turning to `Cc1cc(SCC(=O)OCC(=O)NCC2CCCO2)c(C)cc1Br` (stereo not shown), the “hERG current change (%, negative = inhibition) at 10uM” value turned out to be 55.5%. Under `CCN(CC)S(=O)(=O)c1cccc(C(=O)NC(Cc2c[nH]c3ccccc23)c2nnc3n2CCCCC3)c1` (stereo not shown) stands -7.83%. Regarding `CC(C)NC(=O)CC(c1ccccc1)c1cc(Br)ccc1O` (stereo not shown), the “hERG current change (%, negative = inhibition) at 10uM” value is -7.86%. Under `O=C(Oc1ccccc1C(=O)Nc1ccccc1)c1ccccc1Br` stands 6.15%; under `COCCN(CCOC)c1nc(S(=O)(=O)c2ccc(C)cc2)c(Cl)s1`, -27.5%; under `O=C(NCC(=O)N1CCCC1)c1ccc(Br)o1`, 22.1%.

Take `Cc1cc(C)c(OCC(=O)Nc2nc3ccccc3[nH]2)c(C)c1`: the “hERG current change (%, negative = inhibition) at 10uM” value is 10.7%. Under `O=C(CN(c1cccc([N+](=O)[O-])c1)S(=O)(=O)c1ccccc1)NCc1cccnc1` stands -42.2%; under `O=C(CSc1ccccc1)Nc1ccc2c(c1)C(=O)NC2=O`, -19.9%.

With `O=[N+]([O-])c1ccc(Cl)cc1Sc1ccccn1`, the “hERG current change (%, negative = inhibition) at 10uM” value was determined as 0.135%. As to `Cc1cc(OC(C)C(=O)NCCCN2CCCC2=O)c2c(C)c(C)c(=O)oc2c1` (stereo not shown), the “hERG current change (%, negative = inhibition) at 10uM” value was -11.4%. For `Cc1ccc(-c2[nH]ncc2/C=C(\C#N)C(=O)NC2CCCCC2)cc1`, the “hERG current change (%, negative = inhibition) at 10uM” value is 0.6%. Under `Cc1ccc(SCCCn2cncn2)cc1` stands -2.39%; under `O=C(NCC(=O)N1CCCCC1)c1ccc2ccccc2c1`, 17.5%. Under `Cc1oc2cc3oc(=O)c(CCC(=O)NCCCn4ccnc4)c(C)c3cc2c1C` stands -41.7%. Under `O=C(CCN1C(=O)c2ccccc2C1=O)Nc1ccc(S(=O)(=O)NC2=NCCCCC2)cc1` stands -0.452%; under `O=C(Cc1ccccc1)NCC(=O)Nc1cccc(Cl)c1`, 15.6%. For the molecule `N#CC1(NC(=O)COC(=O)c2ccc(-c3ccc(O)cc3)cc2)CCCCC1`, the “hERG current change (%, negative = inhibition) at 10uM” value stood at 7.22%. As for `O=C(CSc1ccccc1Cl)N1CCOCC1`, the “hERG current change (%, negative = inhibition) at 10uM” value is listed as 4.34%. Under `COc1ccc(S(=O)(=O)N2CCOC2CNC(=O)C(=O)NCc2ccccn2)cc1C` (stereo not shown) stands 11.6%. As for `COc1ccc(CNC(=O)C/C(C)=N/NC(=O)c2ccc(OC)cc2OC)cc1`, the “hERG current change (%, negative = inhibition) at 10uM” value is given as -10.5%. For `O=C(NCCc1ccccc1)C1CCCN1C(=O)Nc1ccc(Cl)cc1` (stereo not shown), the “hERG current change (%, negative = inhibition) at 10uM” value is -9.01%. Regarding `O=CN1Cc2ccccc2-c2ccccc2C1`, the “hERG current change (%, negative = inhibition) at 10uM” value is recorded as 17.1%. Consider `COc1cc(C=O)ccc1Oc1nc(Nc2ccc(F)cc2F)nc(N2CCOCC2)n1`, for which the “hERG current change (%, negative = inhibition) at 10uM” value was 3.49%. As for `O=C(N/N=C/c1cccc2ccccc12)c1cc(C2CC2)[nH]n1`, the “hERG current change (%, negative = inhibition) at 10uM” value was 17.3%. Take `CC(C)CC(CC(C)C)=NNC(=O)c1ccc2c(c1)OCO2`: the “hERG current change (%, negative = inhibition) at 10uM” value was determined as 14.7%. Under `CC(C)(C)C(=O)Nc1ccc(-c2cn3ccsc3n2)cc1` stands 6.38%; under `Cc1nc2c3ccccc3n(CCN3CCCCC3)c2s1.Cl`, -28.9%; under `Cc1ccc(C(=O)N/N=C\c2ccc(OC(=O)c3cccs3)cc2)cn1`, 18.9%.

Take `O=C(OCC(=O)N1CCN(S(=O)(=O)c2ccc(Cl)cc2)CC1)c1cccc(OC(F)F)c1`: the “hERG current change (%, negative = inhibition) at 10uM” value was -42.6%. `Cn1nnc(NC(=O)c2ccccc2)n1`: the “hERG current change (%, negative = inhibition) at 10uM” value is reported as -4.23%.

With `Cc1ccsc1C(=O)OCC(=O)Nc1cccc(F)c1`, the “hERG current change (%, negative = inhibition) at 10uM” value is on record as -1.53%. Under `O=C(Nc1cccc2ccccc12)/C(=C\c1cccc([N+](=O)[O-])c1)NC(=O)c1cccs1` stands -70.1%; under `COc1ccc(-c2cc(C(=O)Nc3ccc4c(c3)OCO4)no2)cc1OC`, -35%; under `CCn1c(=O)n(-c2ccc(Cl)cc2)c(=O)c2c3c(sc21)COC(C)(C)C3`, 15.6%.

As for `O=C(CN1C(=O)c2ccccc2C1=O)Nc1ccc(N2CCOCC2)cc1`, the “hERG current change (%, negative = inhibition) at 10uM” value is -0.211%. Under `CC(=O)C[C@H]1c2cc(C(F)(F)F)ccc2S(=O)(=O)N1c1ccc(N(C)C)cc1` stands -23.7%. `O=C(COC(=O)c1ccc(Br)cc1)Nc1cccnc1Cl`: the “hERG current change (%, negative = inhibition) at 10uM” value is reported as -3.51%. As to `CC(=O)c1ccc(OCCCCOc2ccc(C(C)=O)cc2)cc1`, the “hERG current change (%, negative = inhibition) at 10uM” value was found to be 21.4%. Under `CCN1CCN(c2nc3c(c(=O)[nH]c(=O)n3C)n2Cc2ccccc2)CC1` stands -27.7%; under `O=C(CSc1nc2ccccc2c(=O)n1-c1ccc(SC(F)F)cc1)Nc1ccc(N2CCOCC2)cc1`, 18.4%; under `O=C1NC(=O)/C(=C/c2cccc([N+](=O)[O-])c2)N1`, 19.9%. Under `CC(C)C(=O)N1CCN(c2ccccc2NC(=O)c2cccc(Cl)c2)CC1` stands -69.6%; under `Nc1nnc(SCC(=O)Nc2ccc(F)c(Cl)c2)n1-c1ccccc1`, -70.7%; under `CCN1CCN(c2c(C=O)c(Cl)nc3ccc(OC)cc23)CC1`, -54.5%.

For the molecule `CC(C)(C)C(=O)NC(=S)Nc1sc2c(c1C(N)=O)CCC2`, the “hERG current change (%, negative = inhibition) at 10uM” value is 13.9%. Under `COc1ccc(N(CC(=O)N2CCN(c3ccc(F)cc3)CC2)S(=O)(=O)c2c(C)n[nH]c2C)cc1` stands -69.4%; under `Cl.O=C(/C=C/c1ccccc1)Nc1ccc(N2CCCCC2)cc1`, 5.7%.
